Experimental data reported in PubChem BioAssay AID1159614 (National Center for Advancing Translational Sciences (NCATS), 2016).
Hit rate of the full screen: of about 45,000 compounds, about 65 (0.1%) were called active. Calls follow the shape of the dose curve; as a rule, active = well fitted activation curve with a large enough effect; inconclusive = small, poorly fitted or top-dose-only effect; inactive = no such curve, though single readings can be large or run the other way. The list shows a part of the results.

The molecules below were run against Galactocerebrosidase (Homo sapiens) (UniProt P54803) (assay: A Novel Cell-Based Assay to Identify Small Molecules for B -Galactocerebrosidase). Settings: 145M-Twi-hGALC-G270D cells (Twitcher mouse brain line with human GALC G270D), HMU-beta-Gal fluorescence, 48 h; series mostly up to 57.5 µM; activation: at the top concentration.
Chain of UniProt P54803 (P54803 whole entry, looked up): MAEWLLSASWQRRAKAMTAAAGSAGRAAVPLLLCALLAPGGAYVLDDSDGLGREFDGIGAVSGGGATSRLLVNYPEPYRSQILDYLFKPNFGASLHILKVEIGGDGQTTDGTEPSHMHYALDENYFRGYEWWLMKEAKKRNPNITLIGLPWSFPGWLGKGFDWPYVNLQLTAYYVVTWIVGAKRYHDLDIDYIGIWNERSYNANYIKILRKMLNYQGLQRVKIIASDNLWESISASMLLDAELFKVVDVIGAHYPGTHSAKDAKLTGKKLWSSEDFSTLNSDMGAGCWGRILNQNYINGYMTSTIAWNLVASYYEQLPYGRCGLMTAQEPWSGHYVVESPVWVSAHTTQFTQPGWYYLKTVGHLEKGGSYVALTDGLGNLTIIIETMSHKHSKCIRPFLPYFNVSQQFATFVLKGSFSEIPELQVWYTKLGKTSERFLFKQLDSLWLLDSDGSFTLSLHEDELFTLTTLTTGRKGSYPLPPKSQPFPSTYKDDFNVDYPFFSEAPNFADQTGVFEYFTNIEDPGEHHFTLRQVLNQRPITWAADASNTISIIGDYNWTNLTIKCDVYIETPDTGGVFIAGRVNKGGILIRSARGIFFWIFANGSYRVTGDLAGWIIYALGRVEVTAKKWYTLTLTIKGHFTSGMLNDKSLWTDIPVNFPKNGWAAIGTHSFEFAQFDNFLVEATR
Method in brief: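 Live 145M-Twi cells (Twitcher mouse brain-derived, GALC-null) stably expressing human GALC-G270D, with a wild-type GALC line, were compound-treated. Residual GALC activity was then read as fluorescence from 0.1 mM final HMU-β-gal at pH 5.2; higher signal means activation.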
Also: 0% is about no effect; nearly all actives have a fitted effect of over 65% in size.

activation, inactive:
Cc1ccccc1Nc1c(-c2c[nH]c3ccccc23)nc2ccccn12 -2.78%
Cc1oc(-c2ccccc2)nc1CNC(=O)NC1CCCCC1 -5.44%
CCc1ccc(NC(=O)c2sc3nc(C)c(C(=O)Nc4ccc(C)cc4C)c(-c4ccco4)c3c2N)cc1 -25%
COc1ccc(Nc2sc(C(=O)c3ccccc3)c(N)c2C(=O)Nc2cc(C)ccc2C)c(OC)c1 -18.7%
Cc1ccn2c(c1)nc(=O)c1cc(S(=O)(=O)N3CCCCC3)c(Cl)cc12 -12.9%
Cc1c(NC(=O)c2cc(-c3ccc(Br)cc3)on2)c(=O)n(-c2ccccc2)n1C -25.1%
CCc1ccccc1NC(=O)CN(c1ccc(OC)cc1)S(=O)(=O)c1c(C)n[nH]c1C -7.12%
Cc1cccc(-c2nc3scc(CCNS(=O)(=O)c4ccc(F)cc4C)n3n2)c1 -4.52%
Cc1ccc(NC(=O)c2cc(S(=O)(=O)NCCC3=CCCCC3)ccc2F)cc1C -11.7%
CCN1C(=O)c2ccccc2S(=O)c2ccc(C(=O)N3CCN(c4ccccc4)CC3)cc21 (centres undefined) -12.4%
Cc1ccc(S(=O)(=O)c2nnn3c2nc(N2CCC(C)CC2)c2cc(Cl)ccc23)cc1C -11.7%
CCOC(=O)c1c(NC(=O)/C=C/c2ccc(OCC)c(OC)c2)sc2c1CCC2 -9.59%
COc1cccc(CNC(=O)CCCN2C(=O)CSc3c2c(C)nn3-c2ccccc2)c1OC -11.4%
CCn1c(NCc2ccc(OC)c(OC)c2)nc2ccccc21 -25.2%
Cc1cccc(NC(=O)CN2C(=O)c3ccccc3Sc3ncccc32)c1C -12%
COc1ccccc1C(=O)OCc1cc(=O)n2nc(C3CCCCC3)sc2n1 -16.6%
Cc1cccc(CCNC(=O)C2CCN(c3ncnc4c3nc3n4CCCCC3)CC2)c1 -4.93%
CCOc1ccccc1CNC(=O)c1ccc2c(c1)sc1nc(-c3ccccc3)cn12 -18.4%
Cc1ccc(Cl)cc1N1CCN(CCCNc2ncnc3onc(-c4ccc(Cl)cc4)c23)CC1 -21.2%
Cc1noc2ncnc(N3CCCC(C(=O)NC(C)C)C3)c12 (centres undefined) -10.3%
COc1ccc(CCNC(=O)CSC2=Nc3ccccc3C3=NC(CCC(=O)NCc4ccccc4)C(=O)N23)cc1OC (centres undefined) -9.34%
CCOC(=O)c1cc(-c2ccccc2)n(CCC(=O)Nc2cc(OCC)ccc2OCC)c1C -4.99%
COc1ccc(NC(=O)c2ccc(NC(=O)CCS(=O)(=O)c3cccs3)cc2)cc1OC -8.39%
CCCCCn1c(CCCNC(=O)c2cccc(C)c2)nc2ccccc21 -11.1%
O=C(CCC(=O)N1CC2CCCN2c2ccccc21)NCc1cccc(Cl)c1 (centres undefined) -20.9%
COc1cc2c(=O)n(Cc3ccccc3Cl)c(=O)n(CC(=O)Nc3ccccc3)c2cc1OC -8.55%
C#C[C@]1(O)CC[C@H]2[C@@H]3CCC4=CC(=O)CC[C@@H]4[C@H]3CC[C@@]21CC -15.4%
COc1cccc(-n2c(-c3ccc(Cl)cc3)cc3c2CC(C)(C)CC3=O)c1 -15.4%
O=C(Nc1ccc(F)cc1F)C(Cc1ccccc1)N1Cc2ccccc2C1=O (centres undefined) -18.1%
COc1ccc(C)cc1NC(=O)C1CCN(S(=O)(=O)c2c(C)noc2/C=C/c2ccco2)CC1 -19.7%
CCOc1ccc(NC(=O)CCC(=O)N2CC(C)Oc3ccc(C)cc32)cc1 (centres undefined) -7.17%
COc1ccc(CN2C(=O)c3oc4ccc(F)cc4c(=O)c3C2c2ccc(O)cc2)cc1 (centres undefined) -16.2%
Cc1ccc(C(=O)Nc2nc3ccc(S(=O)(=O)N4CCCC4)cc3s2)cc1 0.658%
Cc1ccc(-c2nnc(SCC(=O)NC3CCCC3)nc2-c2ccc(C)cc2)cc1 -16%
Cc1nc(N2CCOCC2)c2c(C(=O)NCCc3ccccc3)c(C)oc2n1 -5.52%
CCCCn1cc2c(c1-c1ccccc1Br)c(=O)n(C)c(=O)n2C -17%
O=C(/C=C/c1ccccc1)NCCO 6.44%
Cc1ccc(C(=O)n2nc(-c3ccco3)nc2NCc2cccs2)cc1 -12%
CCN(CC)CCNC(=O)c1nn(-c2ccc(OC)c(Cl)c2)c(=O)c2c1c1ccccc1n2C -8.1%
CN(C)S(=O)(=O)n1cc(/C=C(\NC(=O)c2ccccc2Cl)C(=O)NCCCn2ccnc2)c2ccccc21 11.5%
O=C(NCCc1ccccc1)C1(c2cccs2)CCOCC1 -1.53%
CC1(C)[C@@H](OC(=O)CCC(=O)O)CC[C@]2(C)[C@H]3C(=O)C=C4[C@@H]5C[C@@](C)(C(=O)O)CC[C@]5(C)CC[C@@]4(C)[C@]3(C)CC[C@@H]12 -11.6%
O=C(NCCc1ccccc1Cl)c1ccc2c(c1)nc1n2CCOC1 -3.66%
O=C(CSc1nc2c(c(=O)[nH]1)CN(Cc1ccc(F)cc1)CC2)Nc1ccccc1Cl -0.318%
CCOC(=O)C1CCN(S(=O)(=O)c2cc3c4c(c2)CC(=O)N4CCC3)CC1 -10.7%
CCCNC(=O)c1c(C)nn(-c2cccc(C)c2)c1-n1cccc1 -7.7%
CCc1nn(C(C)C(=O)N2CCN(c3cccc(C(F)(F)F)c3)CC2)c(=O)c2cc3occc3n12 (centres undefined) -15.1%
COc1cccc(C(=O)N2c3nc(-c4ccco4)nn3C3(CCCCC3)[C@@H]3CCCC[C@@H]32)c1 -5.57%
CCc1ccccc1NC(=O)CSCc1cnn(-c2ccccc2)c1-n1cccc1 -10.5%
Cc1ccc(Cn2cc(C(=O)c3ccc(F)cc3)c(=O)c3cc4c(cc32)OCCO4)cc1 -12.6%
COc1cc(OC)c(NC(=O)CC(c2cccs2)N2Cc3ccccc3C2=O)cc1Cl (centres undefined) -18.5%
Cc1ccccc1Nc1sc(C(=O)c2ccccc2)c(N)c1C(=O)NCc1ccc(Cl)cc1 -14.9%
Cc1ccc2c(c1)c1c(c(=O)n(-c3ccccc3C)c(=O)n1CC(=O)N1CCCC1)n2C -15.2%
Cc1ccc2ncc3c(-c4ccc(F)cc4)nn(-c4cccc(F)c4)c3c2c1 -0.318%
CCOc1ccccc1CNCCNC(=O)c1nonc1N -7.73%
COc1cc(NS(=O)(=O)c2cnc(N)nc2)cc(OC)c1 -8.54%
Cc1nc(-c2ccc(S(=O)(=O)Nc3ccc(C#N)cc3)cc2)co1 -31.4%
COC(=O)c1ccc(NC(=O)CSc2nc(C)cc(C)c2C(=O)Nc2ccccc2)cc1 -9.78%
CCc1cccc(NC(=O)c2cn3c4c(ccc(Cl)c4c2=O)OC(C)C3)c1 (centres undefined) -8.34%
COc1ccc(N2CCN(C(=O)c3cccc(-n4c(C)nc5cccnc54)c3)CC2)cc1 -10.8%
COc1cc2cc(CNc3ccccc3)c(=O)n(CC(=O)Nc3ccccc3)c2cc1OC -18.8%
O=C(NCCC1=CCCCC1)c1ccc2c(c1)N(Cc1ccccc1F)C(=O)c1ccccc1S2=O (centres undefined) 2.53%
CCc1cccc(-n2c(=O)c3cccnc3n2CC(=O)NCc2ccccc2)c1 -21.1%
CCn1nnc2cc(C(=O)Nc3ccc(Cl)cc3C)ccc21 -6.19%
CCCNS(=O)(=O)c1ccc2nc(NC(=O)c3ccc(F)cc3)sc2c1 -7.15%
COc1cc(C(=O)OCc2cc(=O)n3nc(C4CCCCC4)sc3n2)cc(OC)c1OC 3.6%
CCOC(=O)c1cc(C)n(CC2CCC(C(=O)Nc3ccc(C(C)=O)cc3)CC2)c1C (centres undefined) -20.5%
CCN(CC)c1nc2c(-c3cccc(Br)c3)nnn2c2ccccc12 -9.86%
CCN1CCN(C(c2ccc(OC)cc2)c2c(O)cc(C)n(Cc3ccco3)c2=O)CC1 (centres undefined) -4.93%
COc1ccc(CNC(=O)c2ccc(NC(=O)N3CC4CCCN4c4ccccc43)cc2)cc1 (centres undefined) -12.2%
COc1cccc(NC(=O)C2CCN(S(=O)(=O)c3cccc4nonc34)CC2)c1 -12%
COc1cccc(NC(=O)Cn2c(=O)cc(C)c3c(C)nn(-c4cccc(F)c4)c32)c1 -5.43%
CC1CCCCN1C(=O)Cn1c(=O)n(-c2ccc(Cl)cc2)c(=O)c2c3c(sc21)CCC3 (centres undefined) -13.6%
Cc1ccc(-n2ncc(C(=O)NCCc3ccccc3)c2C2CCN(C(=O)OC(C)(C)C)CC2)c(C)c1 -11.3%
Cc1ccc2c(=O)cc(C(=O)Nc3ccc(S(=O)(=O)N4CCC(C)CC4)cc3)oc2c1C -5.38%
CC(=O)OCC(=O)[C@H]1CC[C@H]2[C@@H]3CCC4=CC(=O)CC[C@]4(C)[C@H]3CC[C@]12C -7.92%
Cc1ccc(Nc2c(-c3ccc(N(C)C)cc3)nc3nc[nH]n23)cc1 -18.2%
COCCCn1c(=N)c(C(=O)NCC2CCCO2)cc2c(=O)n3cc(C)ccc3nc21 (centres undefined) -9.7%
CSc1nc(=O)c2c(n1C)NC(=O)CC2c1ccccc1OC(C)C (centres undefined) -10%
COc1ccc(-c2nc3ccccc3n3c(-c4cccc(C)c4)c4c(=O)n(C)c(=O)n(C)c4c23)cc1 -34.4%
COc1cc(C2CC(=O)Nc3c2c(C)nn3-c2nc(C)cc(C)n2)cc(OC)c1O (centres undefined) -7.08%
O=C(Cc1ccccc1)Nc1sc2c(c1C(=O)Nc1ccccc1)CCCCC2 3.3%
Cc1ccc(CSc2nnc(-n3c(=O)c(C#N)cc4c(=O)n5cccc(C)c5nc43)s2)cc1 2.04%
COc1cccc(-c2nn3c(=O)cc(CN4CCN(S(=O)(=O)c5ccc(C)cc5)CC4)nc3s2)c1 -23.3%
COc1cccc(CNCCSc2nnnn2C)c1OCc1ccccc1 -16.1%
COC(=O)CC1Oc2ccccc2-n2cc(-c3ccc(C)cc3)nc21 (centres undefined) -0.275%
CSc1ccc(CNC(=O)C2CCCN(S(=O)(=O)N(C)c3ccc(F)cc3)C2)cc1 (centres undefined) -8.64%
COc1cccc(-c2cn3c(n2)sc2cc(C(=O)NCCCc4ccccc4)ccc23)c1 -4.31%
CCOc1ccc(CCNC(=O)CCCn2c(=O)c3cccn3c3cccnc32)cc1OCC -10%
CCc1ccc2c(c1)c(=O)c(S(=O)(=O)c1ccc(Cl)cc1)cn2CC -14.2%
O=C(CC1(O)C(=O)N(CCc2ccccc2)c2ccc(Br)cc21)c1ccc(F)cc1 (centres undefined) -9.33%
COc1ccc(OCC(=O)Nc2cc(-c3ccccc3F)nn2-c2ccccc2)cc1 -18.7%
CCCn1ccc2c(OCC(=O)Nc3cc(C)ccc3C)cccc2c1=O -11.1%
Cc1ccc(S(=O)(=O)NCC2CCC(C(=O)NCc3ccc(F)cc3)CC2)cc1 (centres undefined) -13.2%
